Experimental findings from PubChem BioAssay AID485344 (National Center for Advancing Translational Sciences (NCATS), 2010) are described below.

Each structure is given as a SMILES string. About 6,900 (2%) of roughly 340,000 compounds were called active. Cut-off read from the data, not from the text of the source: active = inhibition above about 30%; inactive = below that, where a call was filed. Only a part is listed here, and it is no random draw. The source gives no active or inactive call for entries shown without one.

The target of the assay is D(2) dopamine receptor (Homo sapiens) (UniProt P14416). Put plainly: HTS Assay for Allosteric Antagonists of the Human D2 Dopamine Receptor: Primary Screen for Antagonists. Note: 0% is about no effect. The note with it: HEK293 TREx D2 cells, calcium flux, dopamine EC80; at 10 µM; stronger effect = higher value. Put shortly: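 In this primary screen, negative modulation is detected by tracking calcium flux after an EC80 dopamine challenge in inducible HEK293 T-REx D2 cells preexposed to test compound for 180 s.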
Sequence of UniProt P14416 (P14416 whole entry, looked up): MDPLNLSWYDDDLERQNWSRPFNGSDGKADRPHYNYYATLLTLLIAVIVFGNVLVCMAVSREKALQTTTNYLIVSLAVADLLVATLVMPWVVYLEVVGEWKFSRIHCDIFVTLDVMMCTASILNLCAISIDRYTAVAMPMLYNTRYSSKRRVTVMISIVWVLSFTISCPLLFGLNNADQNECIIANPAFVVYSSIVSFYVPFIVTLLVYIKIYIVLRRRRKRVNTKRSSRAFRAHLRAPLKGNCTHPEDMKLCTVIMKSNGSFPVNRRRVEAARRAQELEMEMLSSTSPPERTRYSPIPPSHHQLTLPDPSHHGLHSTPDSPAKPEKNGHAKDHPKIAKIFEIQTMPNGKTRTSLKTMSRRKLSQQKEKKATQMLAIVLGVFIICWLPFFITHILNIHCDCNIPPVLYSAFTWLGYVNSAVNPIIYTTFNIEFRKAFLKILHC
Regarding `COc1cccc(-n2cc(C(=O)NCc3ccc(C)cc3)c3ccccc3c2=O)c1`, the inhibition (as a rule, the change of the read-out against control, counted positive when it falls) is 7.94%.

Regarding `COc1ccc(C(=O)Nc2nc(C)c(C(C)=O)s2)cc1S(=O)(=O)N1CCOCC1`, the inhibition is active: 30.1%.

Regarding `O=C(CSc1nccn1Cc1ccc(Cl)cc1)Nc1ccc2c(c1)OCO2`, the inhibition is -0.0598%.

Take `COc1ccc(NC(=O)C2CCCN(S(=O)(=O)c3c(C)[nH]c(=O)[nH]c3=O)C2)cc1Cl` (centres undefined): the inhibition was 12.5%.

As to `Cc1nn(-c2ccc(N3CCOCC3)nn2)c(C)c1CCC(=O)Nc1ccc(F)cc1F`, the inhibition was -20%.

Regarding `O=C(Nc1ccc(Cl)c(C(F)(F)F)c1)C(Cc1ccccc1)NS(=O)(=O)c1cccc2nsnc12` (centres undefined), the inhibition amounted to 2.02%.

Regarding `Cc1cc(C)cc(OCCSc2nc(-c3cccs3)nc3cc(=O)[nH]n23)c1`, the inhibition is -3.13%.

With `CCC(Sc1nc2ncccc2o1)C(=O)Nc1cccc(C)c1` (centres undefined), the inhibition was -19.4%.

Turning to `COc1ccc(-c2cc(C)no2)cc1S(=O)(=O)N1CCOc2ccc(Cl)cc21`, the inhibition is 10.9%.

For `COC(=O)c1ccc2c(=O)n(CCCCCC(=O)NCc3ccc(OC)cc3)c(=O)[nH]c2c1`, the inhibition was 13.5%.

Take `COc1ccc(Nc2cc(C(=O)NCCCN(C)C3CCCCC3)c3ccccc3n2)c(OC)c1`: the inhibition is -6.32%.

As for `COc1ccc(CCNc2nc(SCc3cccc(F)c3)nc3ccccc23)cc1OC`, the inhibition worked out at 28.3%.

Take `CCC(C)NC(=O)CN1C(=O)c2cccnc2Oc2ccc(C)cc21` (centres undefined): the inhibition is -6.88%.

In the case of `CC(C)c1ccc(NC(=O)CN2C(=O)COc3ccc(S(=O)(=O)N4CCOCC4)cc32)cc1`, the inhibition worked out at 21.9%.

For `CCn1cc(C(=O)NCCc2ccccc2)c(=O)c2cc(S(=O)(=O)N3CCc4ccccc4C3)ccc21`, the inhibition is -11.9%.

For `CCCn1c2ccccc2c2cnn(CC(=O)NCCCN(Cc3ccccc3)C(C)C)c(=O)c21`, the inhibition was determined as 14.3%.

`O=S(=O)(NCCc1csc2nc(-c3ccc(Cl)cc3)nn12)c1ccc2c(c1)OCCO2`: the inhibition came out at 5.64%.

For the molecule `COc1cc(Cl)c(C)cc1NC(=O)c1nn(C)c2c1CSc1ccccc1-2`, the inhibition is -5.82%.

Consider `COc1ccc(CNC(=O)c2cc(-c3ccc(Cl)cc3)n[nH]2)cc1`, for which the inhibition is 6%.

Consider `O=C(CCCCn1c(=O)c2ccccc2n(Cc2cccc(Cl)c2)c1=O)NCc1ccc2c(c1)OCO2`, for which the inhibition is -0.504%.

As to `CCCN(CCC)CCNC(=O)c1nn(C)c2c1CS(=O)(=O)c1ccccc1-2`, the inhibition was -13.9%.

As to `COc1ccc(C2CC(=O)N(CC(=O)Nc3ccc(C(C)=O)cc3)c3ccccc3S2)cc1OC` (centres undefined), the inhibition is 5.87%.

As to `CCOC(=O)c1c(C)oc2nc(C)nc(N3CCN(c4cccc(C(F)(F)F)c4)CC3)c12`, the inhibition amounted to 4.5%.

Consider `CCOC(=O)c1c(NC(=O)/C=C/c2ccc(Cl)cc2)sc2c1CCC(C)C2` (centres undefined), for which the inhibition is 4.34%.

With `COc1ccc(CCC(=O)NC2CC(=O)N(c3ccccc3)C2)cc1` (centres undefined), the inhibition came out at 1.11%.

Regarding `Cc1ccc2[nH]c(CSc3nnc(NC(=O)COc4ccc(F)cc4)s3)cc(=O)c2c1`, the inhibition was 9.29%.

Regarding `Cc1ccccc1C(=O)n1nc(-c2ccco2)nc1NCc1cccs1`, the inhibition is -9.32%.

Turning to `CC1=Nc2cc(C(=O)N3CCCCC3)ccc2Sc2ccc(C)cc21`, the inhibition came out at 24.4%.

As for `Cc1c(C(=O)NCc2ccc(OC(C)C)cc2)sc2ncnc(N(C)C3CCCCC3)c12`, the inhibition worked out at 4.75%.

Regarding `CCCC(=O)Nc1nnc(SCc2cc(=O)n3cccc(C)c3n2)s1`, the inhibition is -9.91%.

With `COc1ccc(CNC(=O)Cn2ncc3c(=O)oc4ccc(C)cc4c32)c(OC)c1`, the inhibition is -14.7%.

For `Cc1cc(=O)n2[nH]c(NC(=O)c3cccc(Cl)c3)nc2n1`, the inhibition was -11.7%.

For `Nn1c(SCC(=O)Nc2ccc3c(c2)OCO3)nnc1C1CCCCC1`, the inhibition is active: 31%.

For `COc1ccc(N(C)S(=O)(=O)c2ccc3c(c2)n(C)c(=O)c(=O)n3C)cc1`, the inhibition was found to be 7.95%.

Consider `CC(C)CN(CC(C)C)S(=O)(=O)c1ccc(C(=O)Nc2sc3c(c2C(N)=O)CCN(C(C)C)C3)cc1`, for which the inhibition amounted to 5.46%.

On to `CCOCCc1nn2c(=O)cc(COC(=O)c3ccccc3NC(=O)CC(C)C)nc2s1`, for which the inhibition was found to be 16.1%.

Take `CCOc1ccc(-c2noc(CSc3nnc(Cc4ccccc4)n3-c3ccc(F)cc3)n2)cc1`: the inhibition is -11%.

`COc1cccc(C(=O)Nc2c3c(nn2-c2ccc(C)cc2C)CS(=O)(=O)C3)c1OC`: the inhibition was found to be 13.1%.

As for `CCN1CCOC(=O)C1CC(=O)Nc1cc(Cl)ccc1C` (centres undefined), the inhibition worked out at 7.53%.

For the molecule `CCN1CCN(CCCNC(=O)c2cnn(-c3ccc(OC)cc3)c2C2CCN(C(=O)OC(C)(C)C)CC2)CC1`, the inhibition is -2.64%.

For the molecule `C/C(=N\NC(=S)Nc1cc(S(=O)(=O)N2CCOCC2)ccc1Cl)c1ccc(N2CCOCC2)cc1`, the inhibition was active: 34.7%.

For the molecule `CCOC(=O)c1cccc(NC(=O)CC2C(=O)N(c3ccc(F)cc3)C(=O)N2Cc2cccc(OC)c2)c1` (centres undefined), the inhibition was determined as 14%.

As to `CCOC(=O)c1ccc(Nc2nc3ccccc3n3c(C)nnc23)cc1`, the inhibition is -12.5%.

For the molecule `CC1CC(=O)N(CC(=O)Nc2ccc(OC(F)(F)F)cc2)c2ccccc2S1` (centres undefined), the inhibition was -6.03%.

In the case of `CCCN1CCN(C(=O)Cn2ncc3c4ccccc4n(Cc4cccc(Cl)c4)c3c2=O)CC1`, the inhibition was found to be 5.13%.

As to `O=C(c1cccs1)N1CCN(Cc2cn[nH]c2-c2ccc(F)cc2F)CC1`, the inhibition was active: 52.9%.

Regarding `O=C(Nc1c(C(=O)N2CCN(c3ccccc3)CC2)oc2ccccc12)c1ccccc1F`, the inhibition amounted to 8.77%.

For `Cc1cccc(N(C)C(=O)c2cc3c(=O)oc4ccc(C)cc4c3s2)c1`, the inhibition is -3.15%.

Turning to `Cc1ccc(NC(=O)C2CCCN(c3ncnc4c3nc3n4CCCCC3)C2)cc1Cl` (centres undefined), the inhibition is active: 33.1%.

Consider `CCOc1ccc(-n2nc3ccc(NC(=O)c4ccc(C)cc4C)cc3n2)cc1`, for which the inhibition was 7.98%.

For the molecule `Cc1ccc(CCNC(=O)c2cc3cc(S(=O)(=O)N4CCCCC4)ccc3n2C)cc1`, the inhibition turned out to be 14.2%.

In the case of `COc1ccc(OC)c(NC(=O)Cn2c(CCC(=O)O)ccc2-c2ccccc2)c1`, the inhibition stood at 9.49%.

Take `CCn1nnnc1-c1ccc(OC)c(S(=O)(=O)NCc2ccccc2)c1`: the inhibition was active: 33.1%.

On to `Cc1cccc(C)c1NC(=O)Cn1c(=O)cc(C)c2c(C)nn(-c3cccc(Cl)c3C)c21`, for which the inhibition amounted to 2.35%.

As to `COc1ccc(Cl)cc1NC(=O)c1sc2nc3c(cc2c1N)CN(C)CC3`, the inhibition stood at 5.85%.

In the case of `O=C(CCC1N=C2c3ccccc3N=C(SCc3ccc(Cl)cc3)N2C1=O)NC1CCCCC1` (centres undefined), the inhibition amounted to 4.87%.

On to `CCOc1ccccc1NC(=O)Cn1c(=O)n(Cc2ccccc2)c(=O)c2c3c(sc21)CN(C(C)=O)CC3`, for which the inhibition was 9.6%.

On to `Cc1ccc(-n2ncc3c(N4CCCCC4)ncnc32)cc1`, for which the inhibition worked out at 6.81%.

For the molecule `CCOCc1c(C(=O)N2CCN(Cc3ccc(Br)s3)CC2)oc2ccccc12`, the inhibition was active: 32.1%.

Regarding `O=C(CN1CCN(C2CCCCC2)C(=O)C1=O)Nc1ccc(Cl)cc1`, the inhibition stood at 1.25%.

With `COc1ccc(NC(=O)CC(C)S(=O)(=O)c2ccc3c(c2)NC(=O)CO3)cc1OC` (centres undefined), the inhibition is -15.5%.

As for `O=C(Nc1cccc(Cl)c1)c1cc(S(=O)(=O)N2CCC3(CC2)OCCO3)ccc1F`, the inhibition came out at 22.1%.

In the case of `CCN(CCCNC(=O)Cn1ncc2c3ccccc3n(C)c2c1=O)c1cccc(C)c1`, the inhibition was -5.89%.

For `COc1cc(OC)c(NC(=O)Cn2cnc3c(nc4n3CCCCC4)c2=O)cc1Cl`, the inhibition was found to be 11.7%.

As for `Cc1cc(OCC(=O)Nc2nc3c(s2)CCCC3)cc(C)c1Cl`, the inhibition was found to be 1.63%.

As for `O=C(Nc1ccnn1C1CCN(CCCc2ccccc2)CC1)c1ccccc1Cl`, the inhibition is active: 87.7%.

Take `CCOC(=O)c1ccccc1NC(=O)COc1cc(=O)n(CC)c2ccccc12`: the inhibition was -3.24%.

`CCOC(=O)c1cc2c(=O)n3ccccc3nc2n(Cc2ccco2)c1=NC(=O)c1ccc(F)cc1`: the inhibition was -1.09%.

`O=C(CCCn1c(=O)[nH]c2ccccc2c1=O)N1CCN(c2ccccc2)CC1`: the inhibition was 7.15%.

`O=C(CN1C(=O)COc2ccc(S(=O)(=O)N3CCOCC3)cc21)N1CCN(c2ccc(Cl)cc2)CC1`: the inhibition is 13.1%.

In the case of `O=S(=O)(NCCc1cn2ccsc2n1)c1ccc(Cl)cc1`, the inhibition stood at 1.27%.

For the molecule `CC1=C(c2ccc(C)cc2)S(=O)(=O)N(Cc2ccc(C(=O)NCc3ccccc3F)cc2)C1=O`, the inhibition was -13.1%.

Consider `Cc1[nH]nc2c1C(c1cccs1)C1=C(CC(C)(C)CC1=O)N2` (centres undefined), for which the inhibition was active: 30.2%.

`Cc1ccc(C(=O)c2sc(Nc3ccc(F)cc3)nc2N)c(C)c1`: the inhibition is 11.6%.

Take `O=C1CCCc2[nH]c(=O)c(-c3nc(-c4cccc([N+](=O)[O-])c4)cs3)cc21`: the inhibition was found to be 4.89%.

With `CC(=O)c1ccc(NC(=O)Cn2c(=O)oc3cc(S(=O)(=O)N4CCCCC4)ccc32)cc1`, the inhibition is 7.12%.

`COc1ccc(-c2nc(CNC(=O)NC3CCCCC3)c(C)o2)c(OC)c1`: the inhibition was found to be 4.86%.

Regarding `Cc1ccc2c(c1)C(C)(c1ccccc1)CC(C)(C)N2C(=O)c1ccc(F)cc1` (centres undefined), the inhibition is -3.36%.

Take `O=C(NC(=S)N1CCN(Cc2ccccc2)CC1)c1ccccc1`: the inhibition is active: 31.2%.

Regarding `Cc1ccc(NC(=O)CN2C(=O)C(c3ccc(F)cc3)=NC2(C)C)c(C)c1`, the inhibition was determined as 10.9%.

As for `Cc1cccc(C(=O)Nc2sc3c(c2C(=O)Nc2ccccc2)CCC3)c1`, the inhibition was determined as 1.71%.

For the molecule `CCOc1ccccc1NC(=O)C(=O)NCC(c1cccnc1)N1CCN(c2ccccc2)CC1` (centres undefined), the inhibition was -5.76%.

Regarding `C=CCOc1ccc(/C=C/C(=O)OCC(=O)NC2CCCCCCC2)cc1`, the inhibition was active: 42.6%.

In the case of `COC(=O)c1c(SC)nc2ccccc2c1OCc1cc(C)ccc1C`, the inhibition is 14.2%.

Regarding `Cc1ccc(CNC(=O)c2ccc(NC(=O)c3nsc4ccccc34)cc2)cc1`, the inhibition was -2.4%.

With `CC(C)CC(OC(=O)c1nsc(Cl)c1Cl)C(=O)NC1CCCC1` (centres undefined), the inhibition is active: 68.8%.

In the case of `CCCOc1ccc(CNC(=O)c2cc3oc4ccccc4c3n2C)cc1`, the inhibition was -1.53%.

Turning to `CCOc1ccc(CN(C)CC(O)COC(c2ccc(OC)cc2)c2ccc(OC)cc2)cc1` (centres undefined), the inhibition is active: 30.3%.

On to `O=C(CSc1nc(-c2cccs2)cc(C(F)(F)F)n1)Nc1ccccc1Cl`, for which the inhibition is -0.688%.

As for `O=C(c1ccc(F)cc1)C1CCN(C(=S)Nc2ccc(F)cc2)CC1`, the inhibition was active: 47.5%.

Take `O=C(Nc1ccc2nc(SCC(=O)N3CCc4ccccc43)sc2c1)c1ccc(Cl)cc1`: the inhibition was -22.8%.

For the molecule `CCC(=O)C1=C(c2ccccc2)N(C(=O)CC)n2c(nnc2C2CCCCC2)S1`, the inhibition was -22.8%.

As to `O=C(Nc1ccccc1[N+](=O)[O-])c1csnn1`, the inhibition is -0.586%.

Regarding `Cc1ccc(C)c(Oc2c(C(F)(F)F)oc3c(CN4CCN(C)CC4)c(O)ccc3c2=O)c1`, the inhibition was -3.44%.
